PubChem BioAssay AID463173 (ICCB-Longwood Screening Facility, Harvard Medical School, 2010)
About 4,300 (8.3%) of roughly 52,000 compounds were called active. Rule as the data show it: active = survival mostly below about 52% (no sharp cut-off); inactive = mostly above about 56%. The list shows a part of the results.

system: DeltatarO mutant; experiment: growth inhibition of S. aureus wild type versus tarO mutant, primary screen, teichoic acid synthesis inhibitors, RN4220, OD600 (AID 463173); details: OD600, 18 h, stronger effect = lower value, screened at 18.75 µg/mL (by protocol)

Structure (SMILES)	survival
Cc1ccc(-n2ncc(C(=O)NCc3ccccn3)c2C2CCN(C(=O)OC(C)(C)C)CC2)c(C)c1	inactive: 63%
CCOc1ccc(NC(=O)C2CCN(S(=O)(=O)c3c(C)noc3/C=C/c3c(C)cc(C)cc3C)CC2)cc1	inactive: 83%
Cc1ccc(CNc2ncnc3c2c(-c2ccccc2)cn3-c2ccccc2)cc1	inactive: 90%
CCCC(=O)Nc1cccc(-c2cn3cccnc3n2)c1	inactive: 54%
Cc1cccc(C)c1NC(=O)CN(Cc1ccc(Br)cc1)S(=O)(=O)c1ccccc1	inactive: 60%
CCCSc1nc(-c2ccc(OC)cc2)cc(-c2ccccc2OC)c1C#N	inactive: 64%
COc1ccc(Cl)cc1Nc1cc(C)nc2nc(-c3ccccc3C)nn12	inactive: 70%
CN(C)c1ccc(C(CNC(=O)c2cccc(C(F)(F)F)c2)N2CCCC2)cc1 (centres undefined)	inactive: 102%
CCCn1c(=N)c(C(=O)NCc2cccnc2)cc2c(=O)n3ccccc3nc21	inactive: 54%
Cc1ccc(C)c(CNC(=O)c2ccc3c(c2)nc2n3CCC(C)C2)c1 (centres undefined)	inactive: 91%
Cc1ccc(N(C)S(=O)(=O)c2nnc(NC(=O)CC(C)C)s2)cc1	inactive: 90%
CCOC(=O)c1cc(OC(=O)c2ccc(OC)cc2)n(-c2ccccc2)n1	active: 59%
COc1ccc(NC(=O)C(Cc2ccccc2)NS(=O)(=O)c2ccc3c(c2)CCN3C(C)=O)cc1 (centres undefined)	inactive: 72%
CCOC(=O)Cc1ccc(NC(=O)Nc2cc3c(cc2N2CCCCC2)n(C)c(=O)n3C)cc1	inactive: 76%
Cc1ccc(Cn2nnc3c(=O)[nH]c(C(=O)NC(C)(C)C)nc32)cc1	inactive: 93%
c1ccc2c(c1)c1ccccc1n2CN1CCOCC1	inactive: 87%
COc1ccc(OC)c(CCNC(=O)Cn2ccc3cc(S(=O)(=O)N4CCCCC4)ccc32)c1	inactive: 94%
COc1ccc(OC)c(-c2noc(N3CCN(c4cc(C)ccc4C)CC3)n2)c1	inactive: 87%
CCN(CC)c1ccc(NC(=O)c2sc3ccccc3c2Cl)cc1	active: -2%
COc1cccc(CNC(=O)C2CCN(Cc3cc4ccccc4n3Cc3ccc(C)cc3)CC2)c1	inactive: 83%
COc1ccc2oc(=O)c(C(=O)Nc3cccc(C(=O)O)c3)cc2c1	active: 50%
COc1cc(-c2cc3n(C)c(C)c(CCC(=O)NCc4ccccc4)c(=O)n3n2)cc(OC)c1OC	inactive: 92%
Cc1ccc(NC(=O)Cn2c(=O)ccc3cc(S(=O)(=O)N4CCC(C)CC4)ccc32)c(C)c1	inactive: 69%

Structure (SMILES)	survival
O=C(Nc1ccc(F)cc1F)c1ccc2c(c1)CCN2S(=O)(=O)c1ccc(Cl)cc1	inactive: 72%
COc1ccc(-n2cc(C(=O)Nc3cc(F)ccc3F)c3ccccc3c2=O)cc1	inactive: 51%
CCCCOC(=O)c1ccc(NC(=O)CC2NCCNC2=O)cc1 (centres undefined)	inactive: 98%
CCOc1ccc(CNC(=O)Cn2ccc3cc(S(=O)(=O)N4CCCCCC4)ccc32)cc1	inactive: 128%
CC1=Nc2ccc(N)cc2C1(C)C	inactive: 59%
O=C(NCc1ccco1)Nc1c[nH]c2ccc(F)cc2c1=O	inactive: 99%
COc1ccc(CNc2nc(-c3ccc(Cl)cc3)cc(C(F)(F)F)n2)cc1	active: 29%
Cc1cc(N2CCN(c3cccc(C)c3C)CC2)nc(-c2ccccc2)n1	inactive: 90%
Cc1ccc2oc(-c3cccc(NC(=O)c4cccc5c(Cl)cccc45)c3)nc2c1	active: 51%
CCCCn1c(CCCNC(=O)c2cccc(C)c2)nc2ccccc21	inactive: 55%
COCCNC(=O)Cn1nc(-c2ccc(C)cc2)c2ccccc2c1=O	active: 39%
Cc1cccc(NC(=O)c2ccc(CN3CC(=O)N4CCCCC4C3=O)cc2)c1C (centres undefined)	inactive: 72%
COc1cc(C2CC(=O)Nc3ccc4ccccc4c32)ccc1OC(=O)C(C)C (centres undefined)	inactive: 67%
CCOc1ccc2c(c1)c(=O)c(C(=O)c1ccc(CC)cc1)cn2CC(=O)Nc1cccc(Cl)c1	inactive: 119%
O=C(NCCc1ccccc1)c1ccc2nc(CCc3ccccc3)oc2c1	active: 32%
Cc1cc(C)c(Cn2c(=O)n(CCC(=O)NCc3ccc4c(c3)OCO4)c(=O)c3ccccc32)c(C)c1	inactive: 108%
CCOc1ccc(OCC)c(NC(=O)C2CCN(S(=O)(=O)c3ccc4c(c3)CC(C)N4C(C)=O)CC2)c1 (centres undefined)	inactive: 117%
C#CCn1c(O)c(N=NC(=O)c2ccncc2)c2cc(Br)ccc21	inactive: 76%
Cc1ccc2occ(CC(=O)N(Cc3ccc(Cl)cc3)Cc3ccco3)c2c1	inactive: 97%
Cc1ccc(N2C(=O)[C@@H]3CSC(c4ccc(Cl)cc4)N3C2=O)cc1 (some centres undefined)	inactive: 69%
CCc1ccccc1NC(=O)COCc1cc(-c2ccco2)on1	inactive: 55%
COC(=O)c1c(-c2ccc(Cl)cc2)noc1N1CCN(c2ccccc2OC)CC1	inactive: 75%
COc1ccccc1S(=O)(=O)Cc1ccc(C(=O)N2CCN(c3cc(Cl)ccc3C)CC2)o1	inactive: 64%

Structure (SMILES)	survival
Cc1cccc2cc3c(nc12)SC(=NCc1ccco1)N(Cc1cccs1)C3	inactive: 82%
CCc1ccc(C(=O)CC2(O)C(=O)N(Cc3ccc(C)cc3)c3ccccc32)cc1 (centres undefined)	inactive: 57%
CC(C)c1nc2ccc(C(=O)NCc3ccccc3Br)cc2o1	inactive: 67%
COc1cccc(CNC(=O)c2ccc(-n3c(C)cc4c3CCCC4)cc2)c1	inactive: 78%
Cc1noc(-c2ccccc2OCC(=O)Nc2ccccc2[N+](=O)[O-])n1	active: 39%
CCOc1ccccc1N1CC(c2nc3ccccc3n2CCCOc2ccc(OC)cc2)CC1=O (centres undefined)	inactive: 78%
COc1ccc(CNC(=O)c2sc3nc[nH]c(=O)c3c2C)cc1	inactive: 75%
CC(C)OCCCN1C(=O)c2[nH]nc(-c3ccccc3O)c2C1c1ccccc1F (centres undefined)	inactive: 46%
O=C(Nc1ccc(S(=O)(=O)c2ccc(NC(=O)c3ccco3)cc2)cc1)c1ccco1	inactive: 86%
O=C(NCC1CCN(Cc2cccc(Cl)c2)CC1)Nc1ccc(F)c(Cl)c1	inactive: 55%
Cc1cc(O)c(C(c2ccccc2)N2CCN(c3ccc(F)cc3)CC2)c(=O)n1Cc1ccco1 (centres undefined)	inactive: 67%
O=C(c1ccco1)N(Cc1cccs1)c1ccc(F)cc1	inactive: 111%
Cc1ccc(-n2c(CCC(=O)O)ccc2-c2cccs2)cc1Cl	inactive: 86%
CCn1c(SC)nnc1C1CCCN(CC(=O)NCc2ccc3c(c2)OCO3)C1 (centres undefined)	inactive: 78%
Cc1cc(C)cc(NC(=O)Cn2c(=O)n(-c3ccc(C)c(C)c3)c(=O)c3oc4ccccc4c32)c1	inactive: 66%
CCN1C=CC2=C(C#N)C(N)C(C#N)(C#N)C(c3ccccc3C(F)(F)F)C2C1 (centres undefined)	inactive: 89%
Cc1ccc2nc(CN3CCN(S(=O)(=O)c4ccc(C(C)C)cc4)CC3)oc2c1	inactive: 91%
COC(=O)c1ccc(NC(=O)CCn2cnnn2)c(C)c1	inactive: 78%
CCN1CCSc2ccc(C(=O)NCc3cccc(Br)c3)cc21	active: 46%
CCOc1ccc(NC(=O)CSc2c3c(nc4ccccc24)CCCC3)cc1	inactive: 88%
CCCCOc1ccccc1C(=O)N(Cc1sccc1C)C1CCS(=O)(=O)C1 (centres undefined)	inactive: 94%
COc1ccc2cc(CNc3ccc(C)cc3)c(=O)n(CC(=O)Nc3ccc(C)cc3Cl)c2c1	inactive: 102%
CC(C)(C)c1ccc(C(=O)N2CCCC(c3nc4c(nnn4Cc4cccc(F)c4)c(=O)[nH]3)C2)cc1 (centres undefined)	active: 7%

Structure (SMILES)	survival
Cc1ccc(-c2cn3nc(N4CCCC(C(=O)NCc5ccc(F)cc5)C4)sc3n2)cc1 (centres undefined)	inactive: 86%
CC1=C(C(=O)N2CCCCC2)C(c2ccc(Cl)cc2)n2c(nc3ccccc32)N1 (centres undefined)	inactive: 70%
Cc1cccc(C(=O)Nc2ccc(N3CC=C(c4ccccc4C)CC3)c(C(=O)O)c2)c1	inactive: 102%
Cc1ccc(CN2C(=O)c3ccccc3Sc3ccc(C(=O)N4CCOCC4)cc32)cc1	inactive: 96%
Cc1ccc(NC(=O)c2oc3ccc(S(=O)(=O)N(C)C4CCCCC4)cc3c2C)c(C)c1	inactive: 73%
COc1ccc(-c2nc(C)c(CCNC(=O)c3ccc(C(F)(F)F)cc3)s2)cc1OC	active: -2%
CCOc1ccc(NC(=O)CSc2oc(-c3ccco3)nc2S(=O)(=O)c2ccccc2)cc1	inactive: 101%
COc1cc(NC(=O)CN2CCCN(Cc3cccc(F)c3)S2(=O)=O)cc(OC)c1	inactive: 86%
CCOC(=O)c1c(C)oc2nc(C)nc(NCCc3ccc(C)cc3)c12	inactive: 73%
CC(C)N(C(=O)CSc1nnc(-c2cccnc2)n1Cc1ccccc1)C(C)C	inactive: 56%
CCCc1cc(N2CCN(c3ccccc3F)CC2)n2cnnc2n1	inactive: 75%
CCN(CC)S(=O)(=O)c1ccc2c(c1)N(CC(=O)Nc1c(C)cccc1C)C(=O)C1CCCN21 (centres undefined)	inactive: 89%
Cc1c(C)n(Cc2ccccc2)c2ccc(C(=O)N3CCN(c4ccccc4)CC3)cc12	inactive: 99%
COc1ccc(C(=O)NC(c2ccccc2Cl)c2cc(Cl)c3cccnc3c2O)cc1 (centres undefined)	inactive: 92%
Cc1ccc(OCC(=O)NCC(=O)OCc2cc(=O)n3nc(C(C)C)sc3n2)cc1	inactive: 97%
CC(C)Oc1ccc(C(=O)N(Cc2ccc(N(C)C)cc2)Cc2ccco2)cc1	inactive: 59%
COC(=O)CN(C#N)c1nc(C)cc(C)n1	inactive: 94%
O=S(=O)(c1ccccc1)c1nc(-c2ccc(F)cc2)oc1NCc1ccccc1	inactive: 67%
O=C(COc1ccccc1F)Nc1ccc2nc(SCC(=O)N3CCOCC3)sc2c1	inactive: 79%
COc1ccc(CNC(=O)CCCc2nnc3n(C(C)C)c(=O)c4sccc4n23)cc1	inactive: 82%
